# Experimental data as given in the supplement of paper PMC4166925.
# ± gives the standard deviation of the averaged measurements. In all, about 33,000 sequences were measured (“E-score (dimensionless, -0.5 to 0.5)”: median about -0.049, highest 2% from about 0.37 on). This is one part of the list.
# Test system: T1, PmTbr T-box DNA-binding domain (GST fusion)
# T1 sequence: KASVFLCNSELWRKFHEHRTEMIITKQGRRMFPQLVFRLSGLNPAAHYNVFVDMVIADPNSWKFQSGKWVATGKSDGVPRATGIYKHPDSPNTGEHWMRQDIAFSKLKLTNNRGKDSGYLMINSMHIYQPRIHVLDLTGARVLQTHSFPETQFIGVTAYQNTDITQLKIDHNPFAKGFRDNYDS
# Experiment: PBM E-score of 8-mer (E-score (dimensionless, -0.5 to 0.5)); Tbr is Tbrain of the sea star Patiria miniata (Pm) or the sea urchin Strongylocentrotus purpuratus (Sp); higher = stronger binding preference; most listed sequences are background and not binding sites
# Details: the construct has about 5 more residues each side
# Procedure, shortened: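 GST-fused Tbr T-box DNA-binding domains (the whole T-box plus about five flanking residues) were expressed in BL21 E. coli at 20 °C and purified by glutathione affinity chromatography. Universal Agilent oligonucleotide arrays were made double-stranded by primer extension, incubated with 200 nM protein in PBS (pH 7.5), then scanned and quantified. Every ungapped 8-mer was scored from probe intensities. The Universal PBM Analysis Suite gave each word an enrichment E-score, averaged over duplicate arrays.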
row,Sequence,PBM E-score of 8-mer
1,ATATAGCG,0.0197 ± 0.053
2,CTCCGTCC,-0.281 ± 0.02
3,AGCACCAT,0.238 ± 0.028
4,GTGGAAAC,0.15 ± 0.04
5,CATAAACA,0.0515 ± 0.1
6,ACAGGTCT,0.0244 ± 0.081
7,GAGTACAC,-0.0545 ± 0.082
8,CTAGGTTA,-0.0985 ± 0.026
9,CGTTTAGC,0.208 ± 0.014
10,AAATTGAG,-0.0582 ± 0.059
11,ATTAGCGG,0.121 ± 0.025
12,ATAACCGC,0.0089 ± 0.0051
13,AACCCTTG,-0.194 ± 0.059
14,ATCAGGCG,0.0426 ± 0.037
15,AATGCACA,-0.13 ± 0.076
16,AGCTAATA,0.0204 ± 0.01
17,CATCGGAA,-0.167 ± 0.033
18,CGAATGCC,0.0826 ± 0.029
19,CCTCATCG,-0.118 ± 0.014
20,GAGGTAGA,-0.034 ± 0.0055
21,CTTTAGTC,-0.0181 ± 0.003
22,ATGCCGCG,0.0159 ± 0.13
23,CTAGACTA,-0.236 ± 0.027
24,GCCAGTAC,-0.137 ± 0.057
25,CTAGGGGC,0.0889 ± 0.0058

row,Sequence,PBM E-score of 8-mer
1,CTTAAACA,0.0549 ± 0.044
2,GACTGGAC,-0.0474 ± 0.025
3,ACTACTGG,-0.107 ± 0.0023
4,ATCGAGGG,-0.142 ± 0.015
5,CGCAACCC,-0.0836 ± 0.085
6,CTGTCAGC,0.17 ± 0.05
7,ACAAATCC,0.0775 ± 0.025
8,CCGTAAGC,-0.123 ± 0.0014
9,AACACGGG,0.0203 ± 0.024
10,GGGTCATA,-0.279 ± 0.015
11,GTGGTCGA,-0.0449 ± 0.057
12,CCTCGCCA,0.169 ± 0.0086
13,GGCGGCTA,-0.093 ± 0.056
14,AGATCCTA,-0.248 ± 0.053
15,AGACGCAC,-0.0781 ± 0.028
16,CCACGTGG,-0.0491 ± 0.034
17,ACCCACGC,0.2179 ± 0.00083
18,CACCTTGA,0.383 ± 0.017
19,TTCGAGAA,0.0634 ± 0.00088
20,CCACGTGC,0.149 ± 0.013
21,GACTGGCC,-0.0488 ± 0.02
22,GCATCAAA,-0.0837 ± 0.088
23,AAGACTAC,-0.179 ± 0.03
24,CCCACTAC,-0.0637 ± 0.17
25,ATAGACTA,-0.183 ± 0.017

row,Sequence,PBM E-score of 8-mer
1,ATCCAAGC,-0.099 ± 0.014
2,CATCTACA,-0.076 ± 0.082
3,AAGCAAGT,-0.0349 ± 0.02
4,CCGAGTCG,-0.0454 ± 0.094
5,TAACGGCA,-0.0208 ± 0.034
6,AACCTGCG,0.0979 ± 0.006
7,ACACTCAC,0.363 ± 0.0098
8,ACTCTTAA,-0.163 ± 0.033
9,ACTCATGC,-0.0449 ± 0.029
10,CAGCCAAA,0.00371 ± 0.033
11,CGCTTTCC,-0.124 ± 0.0079
12,AAGTGGTG,0.197 ± 0.0025
13,CAATATTC,-0.0464 ± 0.055
14,CTCATTTA,-0.0287 ± 0.11
15,CCAGGAAC,-0.0279 ± 0.023
16,ATGCGGGG,-0.246 ± 0.065
17,AGGTCCAA,0.0229 ± 0.062
18,CAGGATAA,-0.0262 ± 0.016
19,AACGGATT,-0.198 ± 0.078
20,GCAATGGC,0.0807 ± 0.034
21,TCAAGGCA,-0.256 ± 0.018
22,CCTCGGAG,-0.122 ± 0.028
23,AGCCAGAA,-0.236 ± 0.043
24,AACTGAAG,-0.0895 ± 0.042
25,AGACAGTC,-0.168 ± 0.052

row,Sequence,PBM E-score of 8-mer
1,ACTGGGCG,0.0105 ± 0.028
2,ACGGTGCA,0.0807 ± 0.013
3,CTCGGGAC,-0.18 ± 0.058
4,TACTGTGA,0.22 ± 0.011
5,GGGACACC,0.216 ± 0.077
6,ACGTTGTA,0.00283 ± 0.026
7,CAAGTGCC,0.284 ± 0.029
8,CCGGACCG,-0.101 ± 0.036
9,TACAAAGA,-0.249 ± 0.038
10,ACCGATAG,-0.178 ± 0.06
11,AGCAATCC,-0.155 ± 0.027
12,CATCAGAG,-0.207 ± 0.051
13,CCGGCGGA,-0.209 ± 0.019
14,GCTTGAAC,-0.31 ± 0.057
15,CGTCCGCC,-0.0214 ± 0.074
16,GATGCGGA,-0.206 ± 0.022
17,GTCTCTCA,0.0943 ± 0.0041
18,ATAATACC,-0.11 ± 0.039
19,CCTGGAAC,-0.219 ± 0.024
20,GGGTGCAC,-0.0369 ± 0.02
21,CCAGATCA,0.00199 ± 0.013
22,AGGTCAAC,-0.124 ± 0.074
23,ATCGTCGA,0.149 ± 0.01
24,GCTAGAAC,0.13 ± 0.032
25,CCTGGCCA,-0.199 ± 0.054

row,Sequence,PBM E-score of 8-mer
1,AAGGATGG,-0.224 ± 0.021
2,GGGCTGCA,-0.112 ± 0.066
3,GGCTGTAC,0.0347 ± 0.039
4,ATCGACCC,-0.0658 ± 0.05
5,GGTAATGA,-0.0737 ± 0.042
6,CAAATTAG,-0.0267 ± 0.033
7,AAATGTTA,-0.0353 ± 0.054
8,AAGAGGGC,-0.14 ± 0.051
9,ACTGTCCC,-0.00833 ± 0.022
10,TAGTCGCA,0.105 ± 0.03
11,CGAATGCG,-0.000465 ± 0.066
12,CTCAGCCA,-0.126 ± 0.042
13,GCCAAAAC,0.143 ± 0.043
14,CACACCCG,0.426 ± 0.019
15,TAATAAAA,-0.227 ± 0.12
16,CTGATTTC,-0.179 ± 0.0034
17,CAGGGCCA,-0.0506 ± 0.0073
18,AACGCTAT,0.0101 ± 0.0033
19,ACGATCCT,-0.0104 ± 0.021
20,AAGTTATG,-0.0901 ± 0.022
21,ATCTACGA,-0.257 ± 0.059
22,GAAGTATC,0.0124 ± 0.014
23,ACTGGGAA,-0.0647 ± 0.019
24,ACGTGAGT,0.0371 ± 0.033
25,CAACCAGG,0.0356 ± 0.061

row,Sequence,PBM E-score of 8-mer
1,AATCGCTC,-0.168 ± 0.07
2,CCGGTAGA,-0.103 ± 0.024
3,TACGACCA,-0.333 ± 0.012
4,AGAGCACA,-0.168 ± 0.023
5,ACCTATAT,0.143 ± 0.028
6,AGCTCCAG,-0.385 ± 0.0011
7,CCGCGATA,0.214 ± 0.011
8,CATTTTAA,-0.183 ± 0.018
9,GCACGAGA,-0.0965 ± 0.075
10,GCCGGTTA,-0.094 ± 0.1
11,CAATTAGA,-0.0492 ± 0.017
12,CACGTGAC,0.315 ± 0.0075
13,GCTTTTGA,-0.0819 ± 0.08
14,CATCATGG,-0.227 ± 0.0057
15,CCATCGGC,0.0427 ± 0.028
16,CTCTTCAC,0.238 ± 0.029
17,AATAATCA,0.101 ± 0.045
18,AGAGAACT,-0.226 ± 0.058
19,CCGGTGTC,0.247 ± 0.0031
20,ACTTGGTG,0.199 ± 0.044
21,ACAGCGTG,0.0787 ± 0.023
22,GACTTCAA,-0.0958 ± 0.057
23,AGCCCGAA,-0.13 ± 0.029
24,CAAGTCGA,0.0656 ± 0.014
25,CGCACGAA,0.108 ± 0.097

row,Sequence,PBM E-score of 8-mer
1,AAGAGCAG,-0.138 ± 0.12
2,GGTTTATA,-0.151 ± 0.012
3,GATCGTCA,0.0883 ± 0.018
4,ACTCGGAT,-0.114 ± 0.042
5,TCGCTCCA,0.0241 ± 0.008
6,GCACAACA,0.17 ± 0.013
7,AAGCTATG,-0.28 ± 0.016
8,AGGACGCA,-0.204 ± 0.036
9,CCCCGCGG,-0.0837 ± 0.039
10,GGTCGCTA,0.0964 ± 0.017
11,ACCACTGC,-0.1944 ± 0.0013
12,ATATCAGA,-0.16 ± 0.043
13,TCCTCCGA,-0.227 ± 0.031
14,GTAGATAA,-0.124 ± 0.0056
15,TCGCCGAA,0.00162 ± 0.053
16,CGTGTTTC,0.126 ± 0.034
17,ACACAAGT,0.0866 ± 0.059
18,TAAGTCCA,-0.197 ± 0.0039
19,GACGCCCC,0.121 ± 0.078
20,ATTCTCTA,-0.17 ± 0.029
21,CCAGATGC,-0.139 ± 0.069
22,CCAAAGAC,-0.123 ± 0.008
